Results: US11000038B2, “Pyridone compounds and agricultural and horticultural fungicides containing the same as active ingredients” (priority 2017, dated 2021)

Assays:
[1] = test system: gray mold fungi (Botrytis cinerea); test: Test Example B: tomato gray mold, spray treatment of tomato plants; details: for Test B control value: tomato gray mold; for Test B control value class (tomato gray mold): control value=100{1-(n/3)}
[2] = test system: cabbage Alternaria sooty spot fungi (Alternaia brassicicola); test: Test Example C: cabbage Alternaria sooty spot, spray treatment of cabbage plants; assay type: in vivo; details: for Test C control value: cabbage Alternaria sooty spot; for Test C control value class (cabbage Alternaria sooty spot): control value=100{1-(n/3)}
Excerpt: [Test Example C] Cabbage Alternaria Sooty Spot
Test plants (cabbage variety: Shikidori) were cultivated until the cotyledons extended after the sowing of seeds.
<Control Value> Control value=100{1−(n/3)}

[3] = test system: barley powdery mildew fungi (Blumeria graminis f. sp. hordei); test: Test Example D: barley powdery mildew, spray treatment of barley plants; details: for Test D control value: barley powdery mildew; for Test D control value class (barley powdery mildew): control value=100{1-(n/3)}
[4] = test system: grape downy mildew fungus (Plasmopara viticola); test: Test Example G: grape downy mildew, spray treatment of grape plants; details: for Test G control value: grape downy mildew, 7 to 10 days after inoculation; for Test G control value class (grape downy mildew): 2.5 ml/pot, grape Neomuscat, 7 to 10 days from inoculation
[5] = test system: wheat brown rust fungi (Puccinia recondita); test: Test Example E: wheat brown rust, spray treatment of wheat plants; assay type: in vivo; details: for Test E control value: wheat brown rust; for Test E control value class (wheat brown rust): control value=100{1-(n/3)}
[6] = spray treatment of tomato plants
[7] = spray treatment of cabbage plants
[8] = spray treatment of barley plants
[9] = spray treatment of wheat plants

In the case of COc1cc(F)c(-c2c(C)c(=S)c(C)cn2-c2ccccc2C)c(F)c1 [Compound 225], the “Test B control value” [1, 6] is reported as “H (H shows the control value of more than 50%)”, the “Test C control value” [2, 7] is reported as “H (H shows the control value of more than 50%)” and the “Test D control value” [3, 8] is reported as “L (L shows the control value of 50% or less)”. The “Test G control value” ([4]; 250 ppm spray (2.5 ml/pot)) was “L (L shows the control value of 50% or less)” and the “Test E control value” [5, 9] was “L (L shows the control value of 50% or less)”.
For COc1cc(F)c(-c2c(Br)c(=O)c(Cl)cn2CCCC(F)(F)F)c(F)c1 [Compound 84], the “Test B control value class (tomato gray mold)” value (from here on “Test B control value class”) [1, 6] was “H (H shows the control value of more than 50%)”, the “Test C control value class (cabbage Alternaria sooty spot)” value (“Test C control value class” for short) [2, 7] was “H (H shows the control value of more than 50%)” and the “Test D control value class (barley powdery mildew)” value (from here on “Test D control value class”) [3, 8] was “L (L shows the control value of 50% or less)”. For the same molecule, the “Test G control value class (grape downy mildew)” value (from here on “Test G control value class”) ([4]; 250 ppm spray) was “H (H shows the control value of more than 50%)” and the “Test E control value class (wheat brown rust)” value (shortened to “Test E control value class”) [5, 9] was “H (H shows the control value of more than 50%)”.
Cc1ccc(C)c(-n2cc(Cl)c(=O)c(Cl)c2-c2c(F)cc(F)cc2F)c1 [Compound 149] was tested, and the “Test B control value class” value [1, 6] was “H (H shows the control value of more than 50%)”, the “Test C control value class” value [2, 7] was “H (H shows the control value of more than 50%)” and the “Test D control value class” value [3, 8] was “H (H shows the control value of more than 50%)”. For the same molecule, the “Test G control value class” value ([4]; 250 ppm spray) was “H (H shows the control value of more than 50%)” and the “Test E control value class” value [5, 9] was “H (H shows the control value of more than 50%)”.
For Cc1ccc(F)cc1-n1cc(Br)c(=O)c(Cl)c1-c1c(F)cc(F)cc1F [Compound 177], the “Test B control value class” value [1, 6] was “H (H shows the control value of more than 50%)”, the “Test C control value class” value [2, 7] was “H (H shows the control value of more than 50%)” and the “Test D control value class” value [3, 8] was “L (L shows the control value of 50% or less)”. The “Test G control value class” value ([4]; 250 ppm spray) was “L (L shows the control value of 50% or less)” and the “Test E control value class” value [5, 9] was “H (H shows the control value of more than 50%)”.
For CC(C)(C)Cn1cc(Cl)c(=O)c(Cl)c1-c1c(F)cc(F)cc1F [Compound 193], the “Test B control value” [1, 6] was “H (H shows the control value of more than 50%)”, the “Test C control value” [2, 7] was “H (H shows the control value of more than 50%)” and the “Test D control value” [3, 8] was “H (H shows the control value of more than 50%)”. For the same molecule, the “Test G control value” ([4]; 250 ppm spray (2.5 ml/pot)) was “L (L shows the control value of 50% or less)” and the “Test E control value” [5, 9] was “H (H shows the control value of more than 50%)”.
With CCCCn1cc(Cl)c(=O)c(Br)c1-c1c(F)cc(F)cc1F [Compound 222] the “Test B control value” [1, 6] was “H (H shows the control value of more than 50%)”, the “Test C control value” [2, 7] was “H (H shows the control value of more than 50%)” and the “Test D control value” [3, 8] was “L (L shows the control value of 50% or less)”. The “Test G control value” ([4]; 250 ppm spray (2.5 ml/pot)) was “H (H shows the control value of more than 50%)” and the “Test E control value” [5, 9] was “H (H shows the control value of more than 50%)”.
For O=c1c(Br)cn(-c2cccc(Br)c2)c(-c2c(F)cc(F)cc2F)c1Br [Compound 118], the “Test B control value class” value [1, 6] was “L (L shows the control value of 50% or less)”, the “Test C control value class” value [2, 7] was “H (H shows the control value of more than 50%)” and the “Test D control value class” value [3, 8] was “L (L shows the control value of 50% or less)”. The “Test G control value class” value ([4]; 250 ppm spray) was “L (L shows the control value of 50% or less)” and the “Test E control value class” value [5, 9] was “L (L shows the control value of 50% or less)”.
For COc1ccc(C)c(-n2cc(Br)c(=O)c(Br)c2-c2c(F)cccc2F)c1 [Compound 385], the “Test B control value” ([1]; spray treatment) was “H (H shows the control value of more than 50%)”, the “Test C control value” ([2]; spray treatment) was “H (H shows the control value of more than 50%)” and the “Test D control value” ([3]; spray treatment) was “L (L shows the control value of 50% or less)”. For the same molecule, the “Test G control value” ([4]; 250 ppm spray) was “L (L shows the control value of 50% or less)” and the “Test E control value” ([5]; spray treatment) was “H (H shows the control value of more than 50%)”.
For CCc1ccccc1-n1cc(Br)c(=O)c(Cl)c1-c1c(F)cc(F)cc1F [Compound 350], the “Test B control value” [1, 6] was “H (H shows the control value of more than 50%)”, the “Test C control value” [2, 7] was “H (H shows the control value of more than 50%)” and the “Test D control value” [3, 8] was “H (H shows the control value of more than 50%)”. For the same molecule, the “Test G control value” ([4]; 250 ppm spray (2.5 ml/pot)) was “L (L shows the control value of 50% or less)” and the “Test E control value” [5, 9] was “H (H shows the control value of more than 50%)”.
For O=c1c(Br)cn(-c2ccccc2)c(-c2c(F)cccc2Cl)c1Cl [Compound 590], the “Test B control value” ([1]; spray treatment) was “H (H shows the control value of more than 50%)”, the “Test C control value” ([2]; spray treatment) was “H (H shows the control value of more than 50%)” and the “Test D control value” ([3]; spray treatment) was “L (L shows the control value of 50% or less)”. The “Test G control value” ([4]; 250 ppm spray) was “L (L shows the control value of 50% or less)” and the “Test E control value” ([5]; spray treatment) was “H (H shows the control value of more than 50%)”.
COc1cc(F)c(-c2c(Br)c(=O)c(Cl)cn2C(C)C(C)C)c(F)c1 (stereo not shown) [Compound 50] was tested, and the “Test B control value class” value [1, 6] was “H (H shows the control value of more than 50%)”, the “Test C control value class” value [2, 7] was “H (H shows the control value of more than 50%)” and the “Test D control value class” value [3, 8] was “H (H shows the control value of more than 50%)”. The “Test G control value class” value ([4]; 250 ppm spray) was “H (H shows the control value of more than 50%)” and the “Test E control value class” value [5, 9] was “H (H shows the control value of more than 50%)”.
Cc1c(N)cccc1-n1cc(Br)c(=O)c(Cl)c1-c1c(F)cc(F)cc1F [Compound 333] was tested, and the “Test B control value” [1, 6] was “H (H shows the control value of more than 50%)”, the “Test C control value” [2, 7] was “H (H shows the control value of more than 50%)” and the “Test D control value” [3, 8] was “L (L shows the control value of 50% or less)”. The “Test G control value” ([4]; 250 ppm spray (2.5 ml/pot)) was “L (L shows the control value of 50% or less)” and the “Test E control value” [5, 9] was “H (H shows the control value of more than 50%)”.
Cc1ccc(Cl)cc1-n1cc(Br)c(=O)c(Br)c1-c1c(F)cc(F)cc1F [Compound 239] was tested, and the “Test B control value” [1, 6] was “H (H shows the control value of more than 50%)”, the “Test C control value” [2, 7] was “H (H shows the control value of more than 50%)” and the “Test D control value” [3, 8] was “L (L shows the control value of 50% or less)”. The “Test G control value” ([4]; 250 ppm spray (2.5 ml/pot)) was “L (L shows the control value of 50% or less)” and the “Test E control value” [5, 9] was “H (H shows the control value of more than 50%)”.
With O=c1c(Br)cn(-c2ccccc2)c(-c2cc(F)ccc2F)c1Cl [Compound 596] the “Test B control value” ([1]; spray treatment) was “L (L shows the control value of 50% or less)”, the “Test C control value” ([2]; spray treatment) was “H (H shows the control value of more than 50%)” and the “Test D control value” ([3]; spray treatment) was “L (L shows the control value of 50% or less)”. The “Test G control value” ([4]; 250 ppm spray) was “L (L shows the control value of 50% or less)” and the “Test E control value” ([5]; spray treatment) was “L (L shows the control value of 50% or less)”.
CCc1c(-c2c(F)cccc2F)n(-c2cc(C)ccc2C)cc(C)c1=O [Compound 540] was tested, and the “Test B control value” ([1]; spray treatment) was “H (H shows the control value of more than 50%)”, the “Test C control value” ([2]; spray treatment) was “H (H shows the control value of more than 50%)” and the “Test D control value” ([3]; spray treatment) was “L (L shows the control value of 50% or less)”. The “Test G control value” ([4]; 250 ppm spray) was “L (L shows the control value of 50% or less)” and the “Test E control value” ([5]; spray treatment) was “L (L shows the control value of 50% or less)”.
Cc1c(-c2ccccc2)n(-c2ccccc2Cl)cc(Br)c1=O [Compound 387] was tested, and the “Test B control value” ([1]; spray treatment) was “H (H shows the control value of more than 50%)”, the “Test C control value” ([2]; spray treatment) was “H (H shows the control value of more than 50%)” and the “Test D control value” ([3]; spray treatment) was “L (L shows the control value of 50% or less)”. The “Test G control value” ([4]; 250 ppm spray) was “H (H shows the control value of more than 50%)” and the “Test E control value” ([5]; spray treatment) was “H (H shows the control value of more than 50%)”.
For COCn1cc(C)c(=O)c(C)c1-c1c(F)cc(F)cc1F [Compound 260], the “Test B control value” [1, 6] was “H (H shows the control value of more than 50%)”, the “Test C control value” [2, 7] was “L (L shows the control value of 50% or less)” and the “Test D control value” [3, 8] was “L (L shows the control value of 50% or less)”. The “Test G control value” ([4]; 250 ppm spray (2.5 ml/pot)) was “L (L shows the control value of 50% or less)” and the “Test E control value” [5, 9] was “L (L shows the control value of 50% or less)”.
In the case of CCC(C)Cn1cc(Br)c(=O)c(Cl)c1-c1c(F)cc(F)cc1F (stereo not shown) [Compound 166], the “Test B control value class” value [1, 6] is reported as “H (H shows the control value of more than 50%)”, the “Test C control value class” value [2, 7] is reported as “H (H shows the control value of more than 50%)” and the “Test D control value class” value [3, 8] is reported as “H (H shows the control value of more than 50%)”. The “Test G control value class” value ([4]; 250 ppm spray) was “H (H shows the control value of more than 50%)” and the “Test E control value class” value [5, 9] was “H (H shows the control value of more than 50%)”.
For COc1cc(F)c(-c2c(Cl)c(=O)c(Cl)cn2C(C)C(C)C)c(F)c1 (stereo not shown) [Compound 52], the “Test B control value class” value [1, 6] was “H (H shows the control value of more than 50%)”, the “Test C control value class” value [2, 7] was “H (H shows the control value of more than 50%)” and the “Test D control value class” value [3, 8] was “H (H shows the control value of more than 50%)”. For the same molecule, the “Test G control value class” value ([4]; 250 ppm spray) was “L (L shows the control value of 50% or less)” and the “Test E control value class” value [5, 9] was “H (H shows the control value of more than 50%)”.
For COc1cc(F)c(-c2c(Cl)c(=O)c(Cl)cn2C(C)c2ccccc2)c(F)c1 (stereo not shown) [Compound 83], the “Test B control value class” value [1, 6] was “H (H shows the control value of more than 50%)”, the “Test C control value class” value [2, 7] was “H (H shows the control value of more than 50%)” and the “Test D control value class” value [3, 8] was “L (L shows the control value of 50% or less)”. The “Test G control value class” value ([4]; 250 ppm spray) was “H (H shows the control value of more than 50%)” and the “Test E control value class” value [5, 9] was “H (H shows the control value of more than 50%)”.
